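48-hour exposure; five concentrations; linearly interpolated endpoints. GI50: concentration for 50% inhibition of growth.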 Activity calls are given as the source filed them. Cut-off read from the data, not from the text of the source: active = GI50 up to about 1.1 µM and inactive = higher.
These compounds were tested on NCI-H322M (assay: NCI anticancer screen, dose series, 48 h).

Structure (SMILES)	GI50
CS(=O)(=O)ON1C(=O)c2ccc(N)cc2C1=O	inactive: > 100 µM
O=C(CC1(O)CCCCC1)OC1CCCC1	inactive: > 100 µM
CC[N+]1(C)CCC(O)(/C=C/c2ccccc2)C(C(=O)/C=C/c2ccccc2)C1 (centres undefined)	inactive: 18.5 µM
CCN(CC)CC(O)CNc1ccc(NCC2CO2)c2c1C(=O)c1ccccc1C2=O (centres undefined)	inactive: 1.56 µM
O=C(O)C(Cc1ccc(O)c([N+](=O)[O-])c1)N1C(=O)c2ccccc2C1=O (centres undefined)	inactive: > 100 µM
CCOC(=O)NC(Nc1ccc(C(=O)OCC)cc1)(C(F)(F)F)C(F)(F)F	inactive: > 100 µM
CCCOP1(=O)C=C(C)C(Cl)=C(C)C1 (centres undefined)	inactive: 22.2 µM
Nc1cc2c(c3ccccc13)C(CCl)CN2C(=O)c1cc2cc(NC(=O)Nc3ccc4[nH]c(C(=O)N5CC(CCl)c6c5cc(N)c5ccccc65)cc4c3)ccc2[nH]1 (centres undefined)	inactive: 1.42 µM
C=CCNC(=O)N(CCCCC(NC(C)=O)C(=O)NCc1ccccc1)Cc1ccccc1 (centres undefined)	inactive: > 100 µM
CC(=O)/C(=C\NC(N)=S)C(=O)Nc1ccccc1C	inactive: > 100 µM
[O-][n+]1c(-c2ccccc2)oc2ccccc21	inactive: 16.2 µM
CC1CCC2CC1NC(=O)CCOCCC(=O)NC2(C)C (centres undefined)	inactive: > 100 µM
N#Cc1c(CC(=O)O)cc(=O)n2c1[nH]c1ccccc12	inactive: > 100 µM
O=P(CN1CCOCC1)(c1ccccc1)c1ccccc1	inactive: > 100 µM
CSc1cc(Cl)c(C)cc1S(=O)(=O)NC(=O)NNc1cccc(C(F)(F)F)n1	inactive: > 100 µM
CC(=O)Oc1c(OC(C)=O)c(-c2ccc(O)c(O)c2)c(O)c(O)c1-c1ccc(O)cc1	inactive: > 100 µM
C/C(=C\CBr)CCC(Br)C(C)(C)Cl (centres undefined)	inactive: > 100 µM
[O-]c1c2cc(-[n+]3c(-c4ccccc4)cc(-c4ccccc4)cc3-c3ccccc3)cc1CO[C@@H](c1ccccc1)[C@H](c1ccccc1)OCc1cccc(n1)CO[C@@H](c1ccccc1)[C@H](c1ccccc1)OC2	active: 0.352 µM
COC(=O)c1c(CC#N)cccc1CC#N	inactive: > 100 µM
Cc1cc2cccc(Cl)c2nc1C(=O)c1ccccc1	inactive: > 100 µM
C=CCN1C(=O)/C(=C/c2ccccc2)N=C1SC1OC(COC(=O)c2ccccc2)C(OC(=O)c2ccccc2)C1OC(=O)c1ccccc1 (centres undefined)	inactive: > 100 µM
COC(=O)c1ccc(-c2nc(C#N)c(N)o2)cc1	inactive: > 100 µM
c1ccc(/N=C(\N2CCCC2)N(CCN2CCCC2)c2ccccc2)cc1	inactive: 24.9 µM

Structure (SMILES)	GI50
COC(=O)c1ccccc1C#CC#Cc1ccccc1C(=O)OC	inactive: > 10 µM
CCn1c(=O)nc2n(-c3ccc(SC)cc3)c3ccccc3nc-2c1=O	inactive: > 100 µM
COC(=O)C1=C(O)C(C(=O)OC)[C@@]2(O)[C@@H](C(=O)OC)CC[C@@H]1[C@@H]2C(=O)OC (some centres undefined)	inactive: 32.9 µM
CCCNC(=O)C(C)C1CCC2(C)C=CC(=O)C(C)=C2C1O (centres undefined)	inactive: > 100 µM
Cc1ccc(S(=O)(=O)N2CCCSCCSCCCSCC2)cc1	inactive: > 100 µM
COc1ccc(/C(Cl)=C(\C=O)c2ccc(Br)cc2)cc1OC	inactive: > 100 µM
C=CCc1cccc2cc(C(=O)NC3CCCCC3)c(=N)oc12	inactive: 14.2 µM
c1ccc(C2SCc3nc4cc5ccccc5cc4n32)cc1 (centres undefined)	inactive: > 100 µM
[O-][n+]1nc(N2CCOCC2)nc2ccccc21	inactive: > 100 µM
C/C(CC(=O)Nc1ccc(C)cc1)=N\NC(N)=S	inactive: > 100 µM
CCOP(C)(=O)C(Cc1c[nH]c2ccccc12)C(=O)O (centres undefined)	inactive: > 100 µM
CCOC(=O)C(=O)Nc1c(N(CC)CC)n2ccccc2nc1=O	inactive: > 100 µM
Cc1ccc(O)c(C2=CC(c3cccc(Cl)c3)SC(=N)N2)c1 (centres undefined)	inactive: 36.7 µM
CCCCCOc1ccc(/C=N\c2ccc(CCc3ccc(/N=C/c4ccc(OCCCCC)cc4)cc3)cc2)cc1	inactive: > 100 µM
CC(C)(C)OP(=O)(OC(C)(C)C)C(O)c1ccc(/C=C(\C#N)C(N)=O)cc1 (centres undefined)	inactive: > 100 µM
CN(C)c1ccc(/C=C2\CCc3ccccc3C2=O)cc1Br	inactive: > 100 µM
Nc1nc(CCl)nc(N2CCOCC2)n1	inactive: 85.1 µM
N=C(N)C1=C(O)NC(=O)N(C2CCCCC2)C1	inactive: > 100 µM
CCCCCNc1nonc1N	inactive: > 100 µM
O=C(/N=C(\Nc1ccccc1)SCCS/C(=N/C(=O)c1cccs1)Nc1ccccc1)c1cccs1	inactive: 89.9 µM
CC(C)C1C(=O)N2CCCC2C2(O)OC(NC(=O)C3C=C4c5cccc6[nH]cc(c56)CC4N(C)C3)(C(C)C)C(=O)N12 (centres undefined)	inactive: 27.9 µM
O=C(Nc1ccccc1)N(CCCCN(Cc1ccccc1)C(=O)Nc1ccccc1)Cc1ccccc1	inactive: > 100 µM
CCCCCCCCCCCCCC(=O)OCC1OC(n2cc(F)c(=O)[nH]c2=O)C(N)C(OC(=O)CCCCCCCCCCCCC)C1O (centres undefined)	inactive: > 100 µM

Structure (SMILES)	GI50
CC(C)c1cc(C(C)C)c(S(=O)(=O)N/N=C2\CC3CCC2(C)C3(C)C)c(C(C)C)c1 (centres undefined)	inactive: 32.5 µM
COc1ccc2c(c1)CCC(CN1CCN(CCOC(c3ccc(F)cc3)c3ccc(F)cc3)CC1)=C2	inactive: 27.7 µM
CN1CC=C(C#CC(C)(C)O)CC1	inactive: > 37.5 µM
COc1cc(C2SCC(=O)N2c2ccc(Cl)c(Cl)c2)cc(OC)c1OC (centres undefined)	inactive: 37.8 µM
C=CC[C@H]1C[C@@]2(C)OC[C@H](C(C)C)N2C1=O	inactive: > 100 µM
COc1ccc2c(c1)CC[C@@H]1C2CC[C@]2(C)C(=O)N(CCN(C)C)C(=O)CC12 (some centres undefined)	inactive: > 100 µM
N=C(N)NS(=O)(=O)c1ccc(Nc2c3ccccc3nc3c(C(=O)NC(CO)(CO)CO)cccc23)cc1	inactive: 29.7 µM
CCc1nnc(CC)n1N1C(=O)CCC1=O	inactive: > 100 µM
Cc1cn(C2OC(CO[Si](C)(C)C(C)(C)C)/C(=C\C#N)C2O[Si](C)(C)C(C)(C)C)c(=O)[nH]c1=O (centres undefined)	inactive: > 100 µM
CCCC1C(CC)C(NC)C(C#N)(C#N)C1(C#N)C#N (centres undefined)	inactive: 18.8 µM
COc1cccc(C[C@H]2COC(=O)[C@]2(O)Cc2cccc(OC)c2)c1	inactive: > 100 µM
O=C(NCCCCCCCCCCCCNC(=O)c1cnc2ccccc2n1)c1cnc2ccccc2n1	inactive: 40.9 µM
Cc1ccccc1-c1c(N)nc(N)nc1C(=O)Nc1nccs1	inactive: > 100 µM
COC1CC2CCC(C)[C@](O)(O2)C(=O)C(=O)N2CCCCC2C(=O)OC(C(C)CC2CCC(O)C(OC)C2)CC(=O)C(C)C=C(C)C(OC(=O)CN(C)C)C(OC)C(=O)C(C)CC(C)/C=C/C=C/C=C\1C (some centres undefined)	inactive: 11 µM
CC1(CCCCO)C=CC(S(=O)(=O)c2ccccc2)CC1 (centres undefined)	inactive: 6.44 µM
C=C(C)C1CC/C(C)=C/CC[C@]2(C)O[C@H]2CC/C(COC(C)=O)=C\[C@@H]1O (some centres undefined)	inactive: 18 µM
O=C(c1ccc(Cl)cc1Cl)C1[C@H]2C(=O)N(c3ccc(Cc4ccc(N5C(=O)[C@@H]6ON(c7ccccc7)C(C(=O)c7ccc(Cl)cc7Cl)[C@@H]6C5=O)cc4)cc3)C(=O)[C@H]2ON1c1ccccc1 (some centres undefined)	inactive: > 50 µM
COc1ccc(/C=C2\N=C3NC(=O)C(N4CCCCC4)=C(N)N3C2=O)cc1	inactive: > 100 µM
Cc1cc(C)nc(NS(=O)(=O)c2ccc(NNC(=O)c3cccc4c(NNc5ccc(S(=O)(=O)Nc6nc(C)cc(C)n6)cc5)c5ccccc5nc34)cc2)n1	inactive: 23 µM
C=C(Cl)C(C)(Cl)CCC(Br)C(C)(C)Cl (centres undefined)	inactive: 34 µM
COC(=O)[C@H](C)NC(=O)[C@H](CSC)N1C(=O)N[C@@H](C(C)C)C1=O	inactive: > 100 µM
COc1ccc(C2C(Cl)C(=O)N2NC(=O)c2ccc(NC(C)=O)cc2)cc1 (centres undefined)	inactive: > 100 µM
CC(C)(CN1CCCCC1)C(/C=C/c1ccccc1)=N\NC(=O)N/N=C(/C=C/c1ccccc1)C(C)(C)CN1CCCCC1	inactive: 2.65 µM

Structure (SMILES)	GI50
Cn1ncc2c(=O)[nH]c(-c3ccccc3)nc21	inactive: > 100 µM
O=C(Cn1nnc(-c2ccccc2)n1)N/N=C/c1cn(Cc2ccc(Cl)cc2Cl)c2ccccc12	inactive: > 100 µM
COc1ccccc1/C=C1\C(=O)N(C(=O)c2ccc(NC(C)=O)cc2)N=C1C	inactive: > 100 µM
CCN(CC)CC1c2ccccc2C(CNc2ccccc2)N1C (centres undefined)	inactive: > 100 µM
O=C(CSc1nc2ccccc2s1)c1sc2sc3ccccc3[n+]2c1[O-]	inactive: > 100 µM
COC(=O)n1c(C)c(C=O)c2ccc(OC)cc21	inactive: 49.7 µM
SCCCSCCSCCCSCCS	inactive: > 100 µM
COC(=O)C1=C2Nc3ccccc3C23CCN2C(O)C4(CC5CC67CCOC6CCN6CCC8(c9cccc(OC)c9N(C4)C58O)C67)C4OCCC4(C1)C23 (centres undefined)	inactive: > 100 µM
COc1ccc(/C=C\c2cc(OC)c(OC)c(OC)c2)cc1OC(=O)C(N)CCC(=O)O (centres undefined)	active: 0.000473 µM
Cc1cn(C2CC(N=[N+]=[N-])C(CO[Si](C)(C)C(C)(C)C)O2)c(=O)[nH]c1=O (centres undefined)	inactive: 17.3 µM
CN1C/C(=C\c2ccco2)c2nc(N)nc(-c3ccco3)c2C1	inactive: > 100 µM
c1ccc(C[P+]2(c3ccccc3)c3ccccc3-c3ccccc32)cc1	inactive: > 100 µM
O=c1oc2cc(O)ccc2c(O)c1C(c1ccccc1F)c1c(O)c2ccc(O)cc2oc1=O	inactive: > 100 µM
CSc1nc2c(c(=O)n1C)N=C(c1ccccc1)[C@H](C(CC(=O)c1ccccc1)c1ccccc1)C(c1ccccc1)N2 (some centres undefined)	inactive: > 100 µM
Cc1ccc(NC(=O)C2C(=O)N(c3ccc(C)c(C)c3)C(=O)/C2=N/O)cc1C (centres undefined)	inactive: > 100 µM
COC(=O)C1=Cc2cc3c(cc2[C@H](c2ccc4c(c2)OCO4)C1C(=O)OC)OCO3 (some centres undefined)	inactive: > 100 µM
O=c1c(Cc2c(O)oc3cc(O)ccc3c2=O)c(O)oc2cc(O)ccc12	inactive: > 100 µM
O=C(Cc1nc2ccccc2c(=O)n1-c1ccccc1Cl)c1ccncc1	inactive: > 100 µM
COc1ccc(CCc2cc(OC)cc(OC)c2)cc1	inactive: 69.2 µM
COc1ccc2nc3ccccc3c(NCCCCCN(CCCl)CCCl)c2c1	active: 0.106 µM

From ChEMBL document CHEMBL1201862, “PubChem BioAssay data set” (2004)
